# The other results are listed elsewhere or left out. The energies were worked out here from pooled read counts, against the library average; single values are noisy.
# Target: T1, Pho4 (S. cerevisiae) (UniProt P07270)
# T1 sequence: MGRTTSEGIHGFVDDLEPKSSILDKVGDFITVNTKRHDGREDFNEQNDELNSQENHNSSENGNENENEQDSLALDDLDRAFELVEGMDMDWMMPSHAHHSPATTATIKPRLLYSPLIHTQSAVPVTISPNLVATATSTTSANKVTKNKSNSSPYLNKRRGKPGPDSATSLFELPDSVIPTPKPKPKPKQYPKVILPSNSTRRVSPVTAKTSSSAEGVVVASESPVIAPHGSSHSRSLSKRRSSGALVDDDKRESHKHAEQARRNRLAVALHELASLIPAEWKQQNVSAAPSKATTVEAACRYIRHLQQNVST
# Assay: relative binding free energy (BET-seq); higher = weaker binding
# Conditions: reference: library average
row,Sequence,relative binding free energy [kcal/mol]
1,TTGGACACGTGTTAAT,0.1
2,ATTGCCACGTGGTTGG,-0.23
3,TGGTACACGTGAGGGA,0.27
4,AGTCGCACGTGCAGGG,-0.11
5,CTGGTCACGTGGGATG,0.02
6,GGTTGCACGTGAGGTG,0.26
7,GTGGTCACGTGTGTTT,0.29
8,GTCGGCACGTGAGTTA,0.1
9,TGAAACACGTGAATGT,0.38
10,AGACGCACGTGTCGGG,-0.06
11,TGAATCACGTGTTTGT,0.03
12,TATTGCACGTGTTGGA,-0.02
13,CGAAGCACGTGGGTTT,-0.16
14,GTGGTCACGTGATTTG,0.21
15,TACTGCACGTGAGGGT,0.12
16,TTGGTCACGTGAAGGT,0.31
17,AGGGGCACGTGAGTAA,-0.01
18,TGGAACACGTGTATGT,0.09
19,GGTAGCACGTGGAGTA,0.06
20,AAGAGCACGTGGTCTG,-0.2
21,TGGGGCACGTGCTTAT,-0.14

row,Sequence,relative binding free energy [kcal/mol]
1,GATGTCACGTGAGGGA,0.26
2,TCGGTCACGTGTTGTT,0.18
3,TTCGGCACGTGAGTTA,0.1
4,GAAGGCACGTGTGACG,0.05
5,GCGTTCACGTGAATGG,0.28
6,ATCATCACGTGGGGTG,-0.06
7,CCGTTCACGTGGTGTT,0.24
8,TTAGACACGTGTTGTA,0.01
9,AGAAACACGTGGTTAG,0.04
10,TACGGCACGTGGGGAG,-0.31
11,TTTGTCACGTGGGGCC,0.05
12,AAGGGCACGTGTAGAG,-0.11
13,TGTCGCACGTGAAAGT,0.24
14,GTAGGCACGTGGCGTG,-0.11
15,TTTTACACGTGGTGTA,0.03
16,TGTTTCACGTGATGTT,0.4
17,CTGTTCACGTGGGAAT,0.31
18,TATGTCACGTGTAGCG,0.05
19,GGTAGCACGTGGTTGG,0.03
20,GTACGCACGTGGAGGT,-0.19
21,TAGAGCACGTGGGTAC,-0.25

row,Sequence,relative binding free energy [kcal/mol]
1,GTTGTCACGTGTCGGT,0.14
2,GGTTTCACGTGGGGCC,0.29
3,GTCTACACGTGTGGAT,0.24
4,TATTTCACGTGCTTAA,0.19
5,AAGGTCACGTGGATTA,0.2
6,GGGCGCACGTGAGTGA,0.16
7,ATCATCACGTGTTGAG,0.22
8,GTTCACACGTGGTGTG,-0.04
9,AAAATCACGTGGGCTG,0.15
10,TCAGTCACGTGGGATG,0.12
11,TAATGCACGTGGAGGG,-0.1
12,ATAAGCACGTGTATTG,-0.03
13,TTCTGCACGTGTTGGG,-0.06
14,GAGGTCACGTGATTGG,0.39
15,TCTGTCACGTGGTACG,0.09
16,TGCAGCACGTGTTTGC,0.01
17,GTTGACACGTGTTTTC,0.04
18,CACGTCACGTGGTGAG,0.15
19,ACGATCACGTGTGTGT,0.08
20,CGTTGCACGTGTGAGT,-0.09
21,CGTATCACGTGATTGT,0.23

# Reference: the BET-seq Pho4 binding data (Le et al. 2018)
